# Assay results as given in the supplement of paper PMC4166925.
# ± gives the standard deviation of the averaged measurements. Over roughly 33,000 sequences, “E-score (dimensionless, -0.5 to 0.5)” has its median near -0.046; the highest 2% begin near 0.36. The list shows a part of the results.
# System: T1, SpTbr T-box DNA-binding domain (GST fusion)
# T1 sequence: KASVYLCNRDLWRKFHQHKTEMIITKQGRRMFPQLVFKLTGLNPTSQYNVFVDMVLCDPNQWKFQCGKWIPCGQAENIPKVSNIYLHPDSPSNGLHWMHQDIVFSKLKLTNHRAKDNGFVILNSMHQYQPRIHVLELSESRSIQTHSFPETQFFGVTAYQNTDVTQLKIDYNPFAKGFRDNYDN
# Assay: PBM E-score of 8-mer (E-score (dimensionless, -0.5 to 0.5)); Tbr is Tbrain of the sea star Patiria miniata (Pm) or the sea urchin Strongylocentrotus purpuratus (Sp); higher = stronger binding preference; most listed sequences are background and not binding sites
# Details: the construct has about 5 more residues each side
# Procedure, shortened: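 GST-fused Tbr T-box DNA-binding domains (the whole T-box plus about five flanking residues) were expressed in BL21 E. coli at 20 °C and purified by glutathione affinity chromatography. Universal Agilent oligonucleotide arrays were made double-stranded by primer extension, incubated with 200 nM protein in PBS (pH 7.5), then scanned and quantified. Every ungapped 8-mer was scored from probe intensities. The Universal PBM Analysis Suite gave each word an enrichment E-score, averaged over duplicate arrays.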
row,Sequence,PBM E-score of 8-mer
1,CAGGGTAA,-0.204 ± 0.015
2,CCTACTAG,-0.0383 ± 0.072
3,CAGGATCA,-0.153 ± 0.14
4,ATGGACAG,-0.188 ± 0.05
5,ATATCTCC,-0.126 ± 0.007
6,GTGAAGAA,0.232 ± 0.012
7,AGGTGCAA,0.414 ± 0.005
8,GTCGAGAA,0.115 ± 0.0073
9,GGAAATCA,-0.166 ± 0.025
10,CCCCAAAG,0.0456 ± 0.024
11,CAACGAAG,-0.0923 ± 0.14
12,AGCGTACT,-0.179 ± 0.0054
13,AAGGCCAG,-0.123 ± 0.079
14,CTACCAAG,-0.0616 ± 0.013
15,ATATGTTG,-0.00329 ± 0.071
16,AGGGCGGG,-0.0912 ± 0.034
17,AGACCAAT,-0.179 ± 0.015
18,TACTTGAA,-0.218 ± 0.075
19,GCAGTACA,-0.227 ± 0.0085
20,GGATTACA,-0.0273 ± 0.0079
21,ACACACAC,0.316 ± 0.028
22,CGAGAATA,-0.0372 ± 0.015
23,CATCTTGG,-0.163 ± 0.059
24,CATCGGCA,-0.0753 ± 0.08
25,AGTGATAT,0.13 ± 0.043

row,Sequence,PBM E-score of 8-mer
1,CGAAGTAC,-0.169 ± 0.067
2,GAAGGGGC,-0.116 ± 0.014
3,TGAGAACA,0.334 ± 0.012
4,ATCCGCTC,-0.111 ± 0.014
5,AAACGCGA,0.12 ± 0.016
6,GTCGCGTA,0.0514 ± 0.011
7,ATCGCCAT,0.0354 ± 0.046
8,ACTTATAG,0.0355 ± 0.056
9,AAGCGAGT,-0.134 ± 0.0023
10,ATTAAAAG,-0.0493 ± 0.028
11,ATAAAGAC,-0.156 ± 0.039
12,AATAGAGG,-0.0703 ± 0.092
13,CCGCCGAG,-0.0547 ± 0.1
14,ATCTTACG,-0.163 ± 0.018
15,AAGTTTGG,-0.094 ± 0.035
16,CGACAACG,0.267 ± 0.017
17,AACTGCGG,-0.0804 ± 0.036
18,ATTAACGA,0.0966 ± 0.0074
19,GACAGACA,0.175 ± 0.023
20,AACATGTC,0.00394 ± 0.03
21,CTGGAGGC,-0.131 ± 0.051
22,AGTTTATC,-0.121 ± 0.081
23,CTTTGCCA,0.0143 ± 0.022
24,ATTGCGGC,0.0531 ± 0.015
25,ATTATCTG,0.00553 ± 0.015

row,Sequence,PBM E-score of 8-mer
1,ACCGCAAA,-0.111 ± 0.0042
2,ATTCGGGA,-0.246 ± 0.011
3,CCATCGTA,-0.197 ± 0.042
4,CCCGGGAA,0.0553 ± 0.12
5,AATTCTTA,-0.107 ± 0.051
6,CATTGACG,0.163 ± 0.027
7,CCGTAGCA,-0.113 ± 0.046
8,GAACGAAA,-0.0923 ± 0.0099
9,AGGTTAAC,-9e-05 ± 0.072
10,CCAGTGGG,-0.293 ± 0.064
11,GGTACTTA,-0.262 ± 0.024
12,ATAGAGTC,-0.206 ± 0.0048
13,ACCTTTGC,0.125 ± 0.0015
14,CCGTCCGA,-0.095 ± 0.0034
15,ACACGTCC,0.3 ± 0.005
16,AAGATCGC,0.191 ± 0.013
17,CCGGGAAG,-0.022 ± 0.044
18,AGAGTATG,-0.1446 ± 0.00091
19,CGATACAG,-0.0251 ± 0.13
20,CCAATTTC,0.0768 ± 0.033
21,AAATCGCT,0.00352 ± 0.036
22,CAGTAGCC,-0.238 ± 0.072
23,CCCCGCTC,-0.0391 ± 0.058
24,ACGGTCCA,-0.169 ± 0.14
25,CGATCAAC,0.166 ± 0.05

row,Sequence,PBM E-score of 8-mer
1,GCTATATA,-0.0767 ± 0.043
2,TACACTAA,0.0909 ± 0.0016
3,ACATCACG,0.2315 ± 0.0014
4,ACCGCCCC,-0.227 ± 0.025
5,ATGAGATG,-0.0776 ± 0.013
6,AGCTTAAG,-0.12 ± 0.078
7,AAAGAGCC,-0.358 ± 0.039
8,ATGGCCTG,-0.0801 ± 0.06
9,CTTTGCTC,-0.0235 ± 0.0015
10,TAGCTGAA,-0.281 ± 0.029
11,GTCTGCAC,0.131 ± 0.022
12,AACTAGGC,-0.0665 ± 0.022
13,CGCTTCCG,-0.0282 ± 0.071
14,AGTTCCCG,-0.186 ± 0.049
15,AGCAAGAA,-0.218 ± 0.0083
16,CAGTCCTA,-0.0937 ± 0.031
17,CAGCGATG,0.0311 ± 0.029
18,GAGCCAAC,-0.0337 ± 0.0027
19,GAGTTGAC,0.165 ± 0.018
20,ACCGGACT,-0.306 ± 0.011
21,CATCAGAA,-0.161 ± 0.039
22,GAAACCCC,-0.0958 ± 0.075
23,AGGGCTGC,-0.171 ± 0.016
24,GGGTTTGA,-0.0542 ± 0.055
25,ATTTCGGA,-0.14 ± 0.054

row,Sequence,PBM E-score of 8-mer
1,GTGTGTCA,0.346 ± 0.0092
2,GGACACGA,-0.011 ± 0.079
3,ACCCCCAC,-0.0417 ± 0.086
4,TAAGGGGA,-0.163 ± 0.0036
5,ATAACAAT,0.0414 ± 0.0069
6,ATCATCGG,-0.0361 ± 0.054
7,AGAGTCAT,-0.214 ± 0.017
8,GCGCGTTA,0.183 ± 0.021
9,AGCGTCAA,0.317 ± 0.0075
10,ATTGACGC,0.3005 ± 0.00032
11,ACTTCGAA,0.0384 ± 0.021
12,CAGTATCC,-0.104 ± 0.041
13,CGGATAAC,-0.141 ± 0.08
14,GAACCGAC,0.0433 ± 0.0082
15,GGGCGCAC,-0.0583 ± 0.009
16,CTCCCTAC,-0.19 ± 0.015
17,CGTGGTCA,0.102 ± 0.027
18,ATAAAATG,-0.114 ± 0.021
19,ACTCTGGC,-0.0882 ± 0.044
20,AATATTAC,-0.0701 ± 0.068
21,AAGGACCA,-0.196 ± 0.017
22,ATATCGCA,0.197 ± 0.045
23,AGCGGGAT,-0.155 ± 0.021
24,ATTTCATG,-0.179 ± 0.013
25,GATATGGC,-0.116 ± 0.086

row,Sequence,PBM E-score of 8-mer
1,CCGGGAGG,-0.0709 ± 0.013
2,CGAAATGA,0.0519 ± 0.022
3,CAGAAGGC,0.198 ± 0.043
4,CTGTTGGA,0.0702 ± 0.044
5,AGACAGAA,-0.125 ± 0.006
6,ATTGAGTA,-0.0779 ± 0.023
7,GGAGACTA,-0.249 ± 0.027
8,ACAGATGG,-0.12 ± 0.0086
9,AGGATGAC,0.0367 ± 0.12
10,ATGGTCGA,0.00294 ± 0.03
11,ACACGTGT,0.395 ± 0.0082
12,GGAAGAGA,-0.229 ± 0.021
13,CCGCCAGC,-0.0351 ± 0.072
14,GAACGTCA,-0.0514 ± 0.1
15,CGGTATTA,0.0771 ± 0.012
16,CAGAGCGG,-0.287 ± 0.061
17,CCTGCCTA,-0.159 ± 0.015
18,AGTTGTTG,0.245 ± 0.024
19,ATATACTA,0.011 ± 0.11
20,CCCGTGTA,-0.107 ± 0.032
21,AAGAAACG,-0.227 ± 0.091
22,TCAGTCGA,-0.0358 ± 0.019
23,CCTGAGAA,-0.173 ± 0.085
24,GGCTACCC,-0.193 ± 0.0063
25,GGATCCGA,-0.0865 ± 0.026

row,Sequence,PBM E-score of 8-mer
1,GACATGTC,0.192 ± 0.052
2,ATTATCTA,-0.127 ± 0.056
3,ACCCGGAC,0.013 ± 0.009
4,AAAAAACA,-0.111 ± 0.083
5,GTTATGCA,0.039 ± 0.038
6,GAAGGCGA,0.175 ± 0.0091
7,ATCATACC,-0.211 ± 0.084
8,CGTAACTA,-0.166 ± 0.044
9,AAAAGAGC,-0.135 ± 0.0089
10,AGTATATC,-0.115 ± 0.034
11,ATGTAGGA,0.038 ± 0.033
12,ATCGACAT,-0.0174 ± 0.1
13,CGGTTTTC,-0.0891 ± 0.0075
14,CGTTCGGC,-0.0415 ± 0.015
15,GCTGCACC,0.141 ± 0.011
16,CGCATTAC,0.136 ± 0.0027
17,CTACCATC,0.0351 ± 0.025
18,AGAGCTTA,-0.124 ± 0.0042
19,ATCTCATA,-0.184 ± 0.074
20,CCCGGAAC,-0.208 ± 0.096
21,AACTGTAA,0.0753 ± 0.045
22,GAGGCCGC,-0.104 ± 0.058
